From the supplement of paper PMC6206098
± gives the uncertainty stated by the source. Shown are siRNA guide strands that differ only in the seed, positions 2 to 7.

Key:
[1] = test system: M565; experiment: cell viability relative to lipid-only control; higher = less toxic; details: concentration: 10 nM; 96 h; Mus musculus
Procedure: (§1)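 Arrayed screen of 4096 siRNA duplexes, each carrying one of all possible 6mer seeds at guide-strand positions 2-7 in a fixed neutral 19mer scaffold (constant flanks: U at position 1, then ACAUGUAAACCA, plus a 3' AA overhang). The passenger strand is 2'-O-methylated at positions 1-2 so only the guide strand loads into RISC. Duplexes were reverse-transfected at 10 nM with RNAiMAX in triplicate in 384-well plates; viability was read by CellTiter-Glo ATP content 96 h after transfection. Values are % viability normalised to lipid-only wells (HeyA8, H460, M565) or to siNT1 (3LL).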

[2] = test system: HeyA8; experiment: as above; details: concentration: 10 nM; 96 h; Homo sapiens
Procedure: as §1

[3] = test system: H460; experiment: as above; details: concentration: 10 nM; 96 h; Homo sapiens
Procedure: as §1

[4] = test system: 3LL; experiment: cell viability relative to siNT1 control; HeyA8 human ovarian and H460 human lung cancer; M565 mouse liver and 3LL mouse lung cancer; siNT1 is a non-toxic control siRNA; higher = less toxic; details: concentration: 10 nM; 96 h; Mus musculus;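 note: Luminescence-based viability of cells reverse transfected in 384-well plates with lipid-complexed siRNAs built on a non-toxic 19mer backbone whose passenger strand carries 2′-O-methyl groups at positions 1 and 2, triplicates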
Procedure: as §1
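Throughout, for cell viability relative to lipid-only control: reverse lipid transfection in 384-well plates, in triplicate, of duplexes on a non-toxic 19mer backbone with passenger strand 2′-O-methylated at positions 1 and 2, luminescence viability read-out.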

| Sequence | cell viability [1] [%] | cell viability [2] [%] | cell viability [3] [%] | cell viability [4] [%] |
| --- | --- | --- | --- | --- |
| UCACGGCACAUGUAAACCAAA | 29.9 ± 6.2 | 23.8 ± 2.5 | 20 ± 2 | 47.6 ± 9.2 |
| UUGAUUGACAUGUAAACCAAA | 111 ± 2.4 | 86.7 ± 2.6 | 84 ± 14 | 87.6 ± 8.3 |
| UUCGGGGACAUGUAAACCAAA | 133 ± 24 | 65.6 ± 7 | 19.5 ± 1.2 | 81.2 ± 7.6 |
| UGGGGAUACAUGUAAACCAAA | 19.5 ± 4.1 | 4.79 ± 0.9 | 34.2 ± 3.1 | 47.1 ± 35 |
| UCCCCAAACAUGUAAACCAAA | 50.3 ± 8.4 | 87.1 ± 0.91 | 87.3 ± 14 | 88.7 ± 24 |
| UGAUCUUACAUGUAAACCAAA | 58.3 ± 5.3 | 40 ± 1.2 | 56.9 ± 6.6 | 96.7 ± 20 |
| UCUACUUACAUGUAAACCAAA | 73.1 ± 12 | 95.4 ± 12 | 66.8 ± 9.3 | 98.9 ± 18 |
| UUCUCCCACAUGUAAACCAAA | 85.8 ± 10 | 52.6 ± 2.1 | 37.3 ± 4.5 | 12.4 ± 3.3 |
| UUGGGUCACAUGUAAACCAAA | 17.6 ± 1.9 | 33.5 ± 6.1 | 23.7 ± 1.3 | 5.8 ± 3 |
| UAAAGACACAUGUAAACCAAA | 58.8 ± 8.1 | 76.7 ± 8.5 | 79.2 ± 6.8 | 95.6 ± 9.5 |
| UGGAAAUACAUGUAAACCAAA | 80.1 ± 11 | 56.5 ± 3.9 | 61.8 ± 7.6 | 92 ± 16 |
| UCGAGGCACAUGUAAACCAAA | 5.31 ± 1.4 | 28.6 ± 1.8 | 40.2 ± 5.6 | 9.6 ± 3.6 |
| UUACCUGACAUGUAAACCAAA | 81.8 ± 4.1 | 91.3 ± 6.1 | 69.6 ± 10 | 83.2 ± 10 |
| UUGUUACACAUGUAAACCAAA | 84.2 ± 4.5 | 29.5 ± 2.7 | 41.5 ± 11 | 76.7 ± 18 |
| UAGAGUUACAUGUAAACCAAA | 57 ± 3.5 | 63.8 ± 1.9 | 89 ± 22 | 74.9 ± 6 |
| UCCUGGGACAUGUAAACCAAA | 14.9 ± 2.3 | 4.09 ± 0.56 | 18.7 ± 2.6 | 29 ± 9.9 |
| UAGCAACACAUGUAAACCAAA | 40.2 ± 5.4 | 71.9 ± 6.9 | 65.2 ± 11 | 54.4 ± 7 |
| UAGUACCACAUGUAAACCAAA | 47.4 ± 9.9 | 57.8 ± 3.9 | 21.9 ± 3.5 | 18.9 ± 2.7 |
| UAGGUUAACAUGUAAACCAAA | 53 ± 3.8 | 79.9 ± 2.6 | 70.9 ± 13 | 80.6 ± 11 |
| UGUGCGAACAUGUAAACCAAA | 73.5 ± 8.2 | 108 ± 9.2 | 81.2 ± 18 | 77.8 ± 3.2 |
| UCACGACACAUGUAAACCAAA | 59.4 ± 12 | 85 ± 6.3 | 22 ± 2.7 | 93.9 ± 13 |
| UGACAUCACAUGUAAACCAAA | 12.8 ± 0.94 | 5.09 ± 0.36 | 13.1 ± 1.5 | 2.38 ± 0.28 |

| Sequence | cell viability [1] [%] | cell viability [2] [%] | cell viability [3] [%] | cell viability [4] [%] |
| --- | --- | --- | --- | --- |
| UCUAAGUACAUGUAAACCAAA | 64.4 ± 14 | 82.3 ± 6.9 | 51.5 ± 5.9 | 94.4 ± 12 |
| UCCCCAUACAUGUAAACCAAA | 58.5 ± 28 | 78.5 ± 1.9 | 76.2 ± 7.5 | 111 ± 26 |
| UGUAUCAACAUGUAAACCAAA | 78 ± 19 | 82.2 ± 10 | 85.7 ± 12 | 88.4 ± 5.1 |
| UAUAUGUACAUGUAAACCAAA | 78.1 ± 4.6 | 71.7 ± 3.2 | 68.7 ± 4.1 | 39.5 ± 11 |
| UGGCACGACAUGUAAACCAAA | 24.8 ± 3.8 | 52.9 ± 4.1 | 35.9 ± 1.3 | 42 ± 5.5 |
| UGUAGCUACAUGUAAACCAAA | 7.51 ± 1.2 | 8.44 ± 0.62 | 20.7 ± 2.4 | 8.99 ± 4 |
| UUCCUGCACAUGUAAACCAAA | 57.1 ± 8.9 | 41.2 ± 2.7 | 30.9 ± 3.6 | 7.05 ± 1 |
| UCCAAUAACAUGUAAACCAAA | 68.1 ± 15 | 82.6 ± 5.2 | 84.5 ± 7.2 | 98.1 ± 31 |
| UGUCACAACAUGUAAACCAAA | 44.3 ± 1.7 | 83.2 ± 10 | 20.6 ± 1.4 | 87.1 ± 12 |
| UGUGUCAACAUGUAAACCAAA | 38.1 ± 2.9 | 73.5 ± 8.4 | 64.2 ± 6.8 | 48.6 ± 10 |
| UGGAUUUACAUGUAAACCAAA | 49.4 ± 8.1 | 86.6 ± 9.3 | 71.8 ± 13 | 104 ± 15 |
| UUUGGAAACAUGUAAACCAAA | 74.2 ± 11 | 97.7 ± 5.5 | 95.3 ± 12 | 104 ± 5.2 |
| UCGCCCUACAUGUAAACCAAA | 37.1 ± 3.2 | 60.2 ± 2.1 | 68.2 ± 12 | 57.1 ± 12 |
| UCUCCUAACAUGUAAACCAAA | 82.4 ± 10 | 91.1 ± 7 | 63.7 ± 3.9 | 93.7 ± 10 |
| UUGUGGAACAUGUAAACCAAA | 40.3 ± 1.1 | 39.6 ± 4.6 | 62.9 ± 2.9 | 88.5 ± 8.4 |
| UCAACGUACAUGUAAACCAAA | 92.6 ± 11 | 77.2 ± 3 | 57.72 ± 0.37 | 88.6 ± 8.7 |
| UGUUUGGACAUGUAAACCAAA | 109 ± 22 | 57.9 ± 9 | 81.3 ± 10 | 80.6 ± 2.8 |
| UGUAGCAACAUGUAAACCAAA | 28.4 ± 2.5 | 70.3 ± 9.7 | 61.3 ± 8.9 | 67.9 ± 5.3 |
| UCGCGUGACAUGUAAACCAAA | 72 ± 7.6 | 86.5 ± 0.86 | 71.4 ± 8 | 92.4 ± 19 |
| UUUGAGAACAUGUAAACCAAA | 96.4 ± 7.5 | 95.7 ± 3.4 | 78.5 ± 6.6 | 105 ± 4.1 |
| UGACACAACAUGUAAACCAAA | 34.8 ± 2 | 50.8 ± 8.8 | 48.3 ± 6.3 | 88.6 ± 11 |
| UGCAAGUACAUGUAAACCAAA | 42.5 ± 6.2 | 80.3 ± 9.1 | 67.8 ± 3.1 | 22.1 ± 7.4 |
